# Measured values as given in the antibiotic and cytotoxicity screens of Wong et al. (2023).
# This is one part of the list.
# Assays:
# [1] = system: HSkMC (human skeletal muscle cells); assay: cytotoxicity call (relative viability < 0.9); conditions: 10 µM
# [2] = system: HepG2; assay: cytotoxicity call (relative viability < 0.9); conditions: 10 µM
# [3] = system: S. aureus RN4220; assay: growth inhibition call (relative growth <= 0.2); conditions: 50 µM
SMILES,cytotoxicity call [1],cytotoxicity call [2],growth inhibition call [3]
CCn1ncc(Br)c1CN,inactive,inactive,inactive
O=C(CN1CCOCC1)NCC[C@@H]1CC[C@@H](NS(=O)(=O)c2ccc(Cl)cc2)[C@H](CO)O1,inactive,inactive,inactive
COCC#Cc1cnc2c(c1)C(=O)N([C@@H](C)CO)C[C@H](C)[C@@H](CN(C)C(=O)CCN1CCCCC1)O2,inactive,inactive,inactive
COc1ccc(CN(C)C[C@H]2Oc3ccc(NC(=O)Cn4cnnn4)cc3CC(=O)N([C@H](C)CO)C[C@H]2C)cc1,inactive,inactive,inactive
O=C(NCC1CC1)[C@H]1[C@H](CO)[C@H]2Cn3c(cccc3=O)[C@@H]1N2C(=O)c1cccnc1,inactive,inactive,inactive
C=CCNC(N)=S,inactive,inactive,inactive
O=C(C[C@H]1CC[C@H](NC(=O)C2CC2)[C@@H](CO)O1)NCCCN1CCOCC1,inactive,inactive,inactive
C[C@@H]1CN([C@H](C)CO)C(=O)c2cc(NC(=O)CCC(F)(F)F)ccc2O[C@@H](C)CCCCO[C@@H]1CN(C)C(=O)NC1CCCCC1,inactive,inactive,inactive
C[N+]1(CCCCC[N+]2(C)CCCC2)CCCC1.O=C([O-])C(O)C(O)C(=O)O.O=C([O-])C(O)C(O)C(=O)O,inactive,inactive,inactive
C[C@@H]1CN([C@@H](C)CO)C(=O)c2cc(NC(=O)c3ccncc3)ccc2O[C@@H](C)CCCCO[C@@H]1CN(C)S(=O)(=O)c1ccc(Cl)cc1,inactive,inactive,inactive
O=C(C[C@@H]1CC[C@@H]2[C@H](COC[C@@H](O)CN2C(=O)c2ccccn2)O1)NC1CCC1,inactive,inactive,inactive
COc1cccc(S(=O)(=O)N(C)C[C@H]2Oc3cc(C4=CCCC4)ccc3S(=O)(=O)N([C@@H](C)CO)C[C@@H]2C)c1,inactive,inactive,inactive
CO[C@@H](CN(C)C(=O)c1ccccc1F)[C@@H](C)CN([C@H](C)CO)S(=O)(=O)c1ccc(Cl)cc1,inactive,inactive,inactive
O=C(NCc1cccc(F)c1)[C@H]1[C@H](CO)[C@H]2Cn3c(cccc3=O)[C@@H]1N2C(=O)c1cnccn1,inactive,inactive,inactive
O=C(C[C@@H]1CC[C@@H]2[C@H](COC[C@@H](O)CN2C(=O)C2CC2)O1)NCc1ccncc1,inactive,inactive,inactive
Nc1nnnn1/N=C\C=C\c1ccccc1,inactive,inactive,inactive
CN1CCN(C(=O)C[C@H]2CC[C@H]3[C@@H](COC[C@H](O)CN3C(=O)C3CC3)O2)CC1,inactive,inactive,inactive
CC(=O)Nc1cc(C(C)C)c(C(C)C)cc1C(C)C,inactive,inactive,inactive
O=C(C[C@@H]1C[C@@H]2c3cc(NC(=O)c4ccc5c(c4)OCO5)ccc3O[C@@H]2[C@H](CO)O1)NCCc1ccccc1,inactive,active,inactive
C[C@@H]1CN([C@@H](C)CO)C(=O)Cc2cc(NS(=O)(=O)c3cn(C)cn3)ccc2O[C@@H]1CN(C)S(=O)(=O)c1cccs1,inactive,inactive,inactive

SMILES,cytotoxicity call [1],cytotoxicity call [2],growth inhibition call [3]
Cc1ccc(S(=O)(=O)N(C)C[C@@H]2Oc3ccc(NC(=O)c4ccncc4)cc3C(=O)N([C@@H](C)CO)C[C@@H]2C)cc1,inactive,inactive,inactive
C[C@@H](C[N+](C)(C)C)OC(N)=O,inactive,inactive,inactive
NS(=O)(=O)c1cc2c(cc1C(F)(F)F)NCNS2(=O)=O,inactive,inactive,inactive
COc1ccc(S(=O)(=O)N(C)C[C@@H]2Oc3ccc(NC(=O)CCCN(C)C)cc3CC(=O)N([C@H](C)CO)C[C@H]2C)cc1,inactive,inactive,inactive
C[C@H](CO)N1C[C@H](C)[C@@H](CN(C)Cc2ccncc2)OCCCC[C@H](C)Oc2ccc(NS(C)(=O)=O)cc2C1=O,inactive,inactive,inactive
Cc1cc(C)c(C)c(C(=O)O)c1C,inactive,inactive,inactive
Cc1ccccc1NC(=O)Nc1ccc(CC(=O)N(C)[C@@H](CC(C)C)C(=O)NCC[C@H](NC(=O)[C@@H]2CCCN2S(=O)(=O)c2cc(Cl)cc(Cl)c2)C(=O)O)cc1,inactive,inactive,inactive
C=CC[C@@H](CC(=O)N[C@@H](CO)Cc1ccccc1)C(=O)NCCOC(=O)[C@H](CC=C)CC(=O)OC(C)(C)C,inactive,inactive,inactive
C[C@H](CO)N1C[C@H](C)[C@@H](CN(C)Cc2ccc(Cl)c(Cl)c2)OCc2ccccc2-c2c(n(C)c3ccccc23)C1=O,inactive,inactive,inactive
C[C@@H]1CN([C@H](C)CO)S(=O)(=O)c2ccc(C#Cc3ccc(F)cc3)cc2O[C@H]1CN(C)S(=O)(=O)c1ccc(F)cc1,inactive,inactive,inactive
COc1ccc(S(=O)(=O)Nc2ccc3c(c2)C(=O)N([C@@H](C)CO)C[C@H](C)[C@@H](CN(C)C(=O)Nc2ccc(C(F)(F)F)cc2)OCCCC[C@@H](C)O3)cc1,inactive,active,inactive
C[C@@H]1CCCCO[C@H](CN(C)S(=O)(=O)c2ccc(Cl)cc2)[C@H](C)CN([C@@H](C)CO)C(=O)c2cc(NC(=O)Nc3ccc4c(c3)OCO4)ccc2O1,inactive,active,inactive
C[C@@H]1[C@@H]([Si](C)(C)F)[C@H](CC(=O)N2Cc3ccccc3C[C@H]2CO)O[C@@]12C(=O)N(c1ccccc1)c1ccccc12,inactive,inactive,inactive
CN(C)C(=O)C[C@H]1CC[C@@H](NC(=O)C2CC2)[C@@H](CO)O1,inactive,inactive,inactive
CO[C@H]1CN(C)C(=O)c2ccc(NC(=O)C3CCOCC3)cc2OC[C@H](C)N(Cc2cccnc2)C[C@H]1C,inactive,inactive,inactive
O=C(Nc1ccc(C(F)(F)F)cc1)Nc1ccc2c(c1)[C@H]1C[C@H](CC(=O)N3CCc4ccccc4C3)O[C@H](CO)[C@H]1O2,active,inactive,inactive
CCCN(CCC)C(=O)C(CCC(=O)O)NC(=O)c1ccccc1 (centres undefined),inactive,inactive,inactive
C[C@@H]1CN([C@@H](C)CO)C(=O)c2cccc(NC(=O)Nc3ccc(C(F)(F)F)cc3)c2O[C@@H]1CN(C)C(=O)Nc1cccc2ccccc12,active,active,inactive
COc1cccc(NC(=O)N2C[C@@H](O)COC[C@@H]3O[C@H](CC(=O)NCc4ccccc4F)CC[C@H]32)c1,inactive,inactive,inactive
O=C(CCCCCC(=O)N/N=C/[C@H](O)[C@@H](O)[C@H](O)[C@H](O)CO[C@H]1O[C@H](CO)[C@H](O)[C@H](O)[C@H]1O)NO,inactive,inactive,inactive

SMILES,cytotoxicity call [1],cytotoxicity call [2],growth inhibition call [3]
C[C@H](CO)N1C[C@H](C)[C@H](CN(C)C(=O)Nc2ccccc2)Oc2ccc(NC(=O)Nc3cccc4ccccc34)cc2CC1=O,inactive,inactive,inactive
CC(C)n1c(-c2ccccc2)cs/c1=N\c1ccccc1,inactive,inactive,inactive
C=C/C=C/[C@@H]1C(=C)CN2[C@H]1[C@H](Cc1ccccc1)OC(=O)[C@@H]2Cc1ccc(-n2cc(-c3cccc(/C=C/C(=O)NO)c3)nn2)cc1,inactive,inactive,inactive
C[C@H](CO)N1C[C@H](C)[C@@H](CN(C)C(=O)NC2CCCCC2)Oc2c(NS(=O)(=O)c3cn(C)cn3)cccc2C1=O,inactive,inactive,inactive
Cc1ccc(S(=O)(=O)N[C@@H]2CC[C@H](CCNC(=O)CN3CCOCC3)O[C@@H]2CO)cc1,inactive,inactive,inactive
O=C(C[C@H]1C=C[C@@H](NC(=O)c2ccncc2)[C@@H](CO)O1)NCc1ccncn1,inactive,inactive,inactive
CCCC(=O)O,inactive,inactive,inactive
COc1ccc(S(=O)(=O)Nc2ccc3c(c2)CC(=O)N([C@H](C)CO)C[C@H](C)[C@@H](CN(C)S(=O)(=O)c2cn(C)cn2)O3)cc1,inactive,inactive,inactive
C[C@@H]1CN([C@H](C)CO)C(=O)c2cc(C#Cc3ccccc3F)cnc2O[C@@H]1CN(C)C(=O)C1CCOCC1,inactive,inactive,inactive
C[C@@H]1CCCCO[C@@H](CN(C)C(=O)Nc2cccc3ccccc23)[C@H](C)CN([C@H](C)CO)C(=O)c2cc(NC(=O)c3ccccc3)ccc2O1,inactive,inactive,inactive
COCC(=O)Nc1ccc2c(c1)C(=O)N(C)[C@@H]1CC[C@H](CC(=O)NCc3ccc(OC)cc3)O[C@@H]1CO2,inactive,inactive,inactive
O=C(CCCCCCC(=O)Nc1ccc([C@H]2O[C@@H](CSc3nc(-c4ccccc4)c(-c4ccccc4)o3)C[C@H](c3ccccc3)O2)cc1)NO,inactive,inactive,inactive
COc1ccc([Si](C)(C)[C@H]2[C@H](CCn3cc([C@H](O)c4ccccc4)nn3)O[C@@]3(C(=O)N(Cc4cccc(N5CCOC5=O)c4)c4ccccc43)[C@@H]2C)cc1,inactive,inactive,inactive
COc1ccc(CN(C)C[C@@H]2OCCCC[C@H](C)Oc3ccc(NC(=O)NC4CCCCC4)cc3C(=O)N([C@@H](C)CO)C[C@H]2C)cc1,inactive,inactive,inactive
CO[C@@]1(C(=O)NN)COc2ccccc2O1,inactive,inactive,inactive
O=C(C[C@H]1C[C@H]2c3cc(NS(=O)(=O)c4ccc(F)cc4)ccc3O[C@H]2[C@@H](CO)O1)NCc1ccncc1,inactive,inactive,inactive
CS(=O)(=O)N1C[C@@H]2OCC[C@@H]2[C@H](C(=O)NCc2cccnc2)C1,inactive,inactive,inactive
Cc1noc(C)c1S(=O)(=O)Nc1ccc2c(c1)CC(=O)N([C@@H](C)CO)C[C@H](C)[C@@H](CN(C)C(=O)Nc1ccccc1)O2,inactive,inactive,inactive
